# The supplement of paper PMC12217912
# The list shows a part of the results. The full chains were built here from the parent and the listed change. Inactive controls read about 0.05.
# B1: TEV protease; numbered along this chain (parent)
# chain: MGESLFKGPRDYNPISSSICHLTNESDGHTTSLYGIGFGPFIITNKHLFRRNNGTLVVQSLHGVFKVKDTTTLQQHLVDGRDMIIIRMPKDFPPFPQKLKFREPQREERICLVTTNFQTKSMSSMVSDTSCTFPSGDGIFWKHWIQTKDGQCGSPLVSTRDGFIVGIHSASNFTNTNNYFTSVPKNFMELLTNQEAQQWVSGWRLNADSVLWGGHKVFMVKPEEPFQPVKEATQL
# Variants of: B1
# Assay: raw area under fraction-flipped curve 0-4 h after induction (AUC4h, not background-subtracted), DNA-recorder readout of cleavage of the substrate (dimensionless); higher = more cleavage of the substrate by the protease variant
# Details: temperature: 34 °C; time window: 0-4 h after rhamnose induction
# Experimental: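 In vivo DNA recorder in E. coli TOP10(DE3) ΔrhaA at 34 °C. Each TEVp single-site mutant (parent TEVp 0) is paired with a single-site variant of the 7-mer TEVs (canonical ENLYFQ|S). The substrate sits between flexible linkers in a Bxb1-sfGFP-TEVs-SsrA fusion, so cleavage stabilises Bxb1 and speeds flipping of a recombination array, read by NGS. The value is the raw area under the fraction-flipped curve over 0-4 h after rhamnose induction (AUC4h), with ≥20 reads per time point. It is not background-subtracted; inactive controls average about 0.047.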
# 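Further: Bxb1 expression induced with 0.2% (w/v) L-rhamnose at OD600 near 0.5, cultures sampled hourly, flipped fraction per protease–substrate barcode pair counted by paired-end Illumina sequencing.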
Variant,area with substrate ENLYFQA,area with substrate ENLYFQC,area with substrate ENLYFQD,area with substrate ENLYFQE,area with substrate ENLYFQG,area with substrate ENLYFQI,area with substrate ENLYFQK,area with substrate ENLYFQL,area with substrate ENLYFQM,area with substrate ENLYFQN,area with substrate ENLYFQP,area with substrate ENLYFQR,area with substrate ENLYFQS,area with substrate ENLYFQT,area with substrate ENLYFQV,area with substrate ENLYFQW,area with substrate ENLYFQF,area with substrate ENLYFQQ,area with substrate ENLYFQY,area with substrate ENLYFQH
MGESLFKGPRDYNPISSSICHLTNESDGHTTSLYGIGFGPFIITNKHLFRRNNGTLVVQSLHGVFKVKDTTTLQQHLVDGRDMIISRMPKDFPPFPQKLKFREPQREERICLVTTNFQTKSMSSMVSDTSCTFPSGDGIFWKHWIQTKDGQCGSPLVSTRDGFIVGIHSASNFTNTNNYFTSVPKNFMELLTNQEAQQWVSGWRLNADSVLWGGHKVFMVKPEEPFQPVKEATQL [I86S],0.0504,0.0591,0.068,0.0262,0.0511,0.0549,0.0694,0.0459,0.053,0.0514,0.0568,0.0405,0.0586,0.0527,0.0438,0.0482,–,–,–,–
MGESVFKGPRDYNPISSSICHLTNESDGHTTSLYGIGFGPFIITNKHLFRRNNGTLVVQSLHGVFKVKDTTTLQQHLVDGRDMIIIRMPKDFPPFPQKLKFREPQREERICLVTTNFQTKSMSSMVSDTSCTFPSGDGIFWKHWIQTKDGQCGSPLVSTRDGFIVGIHSASNFTNTNNYFTSVPKNFMELLTNQEAQQWVSGWRLNADSVLWGGHKVFMVKPEEPFQPVKEATQL [L5V],0.124,–,0.0855,–,0.0962,–,0.0493,0.0356,–,0.0637,–,0.0544,0.12,0.0694,0.0535,–,0.0831,0.0778,0.0998,–
MGESLFKGPRDYNPISSSICHLTNESDGHTTSLYGIGFGPFIITNKHLFRRNNGTLVVQSLHGVFKVKDTTTLQQHLVDGRDMIIIRMPKDFPPFPQKLKFREPQREERICLVTTNFRTKSMSSMVSDTSCTFPSGDGIFWKHWIQTKDGQCGSPLVSTRDGFIVGIHSASNFTNTNNYFTSVPKNFMELLTNQEAQQWVSGWRLNADSVLWGGHKVFMVKPEEPFQPVKEATQL [Q118R],0.124,–,–,0.0664,0.0905,–,0.035,–,0.0914,–,0.0592,0.0649,0.11,0.0738,0.052,–,–,–,–,0.0822
MGESLFKGPRDYNPISSSICHLTNESDGHTTSLYGIGFGPFIITNKHLFRWNNGTLVVQSLHGVFKVKDTTTLQQHLVDGRDMIIIRMPKDFPPFPQKLKFREPQREERICLVTTNFQTKSMSSMVSDTSCTFPSGDGIFWKHWIQTKDGQCGSPLVSTRDGFIVGIHSASNFTNTNNYFTSVPKNFMELLTNQEAQQWVSGWRLNADSVLWGGHKVFMVKPEEPFQPVKEATQL [R51W],0.105,0.112,0.0569,–,–,0.0552,0.0549,0.0738,–,0.102,–,0.0559,0.119,0.0697,0.0572,–,0.0835,0.0617,–,–
MGESLFKGPRDYNPISSSICHLTNESDGHTTSLYGIGFGPFIITNKHLFRRNFGTLVVQSLHGVFKVKDTTTLQQHLVDGRDMIIIRMPKDFPPFPQKLKFREPQREERICLVTTNFQTKSMSSMVSDTSCTFPSGDGIFWKHWIQTKDGQCGSPLVSTRDGFIVGIHSASNFTNTNNYFTSVPKNFMELLTNQEAQQWVSGWRLNADSVLWGGHKVFMVKPEEPFQPVKEATQL [N53F],0.0783,0.0954,–,–,0.0838,0.0541,0.0622,0.0658,0.143,0.0685,–,0.0583,0.0818,0.0684,–,0.0556,0.0634,–,0.0821,0.0697
MGESLFKGPRDYNPISSHICHLTNESDGHTTSLYGIGFGPFIITNKHLFRRNNGTLVVQSLHGVFKVKDTTTLQQHLVDGRDMIIIRMPKDFPPFPQKLKFREPQREERICLVTTNFQTKSMSSMVSDTSCTFPSGDGIFWKHWIQTKDGQCGSPLVSTRDGFIVGIHSASNFTNTNNYFTSVPKNFMELLTNQEAQQWVSGWRLNADSVLWGGHKVFMVKPEEPFQPVKEATQL [S18H],0.097,0.123,0.0812,–,0.12,–,0.0618,0.0629,0.0893,–,–,–,0.105,0.0719,0.0651,0.0651,0.0701,0.0616,0.0719,0.0828
MGESLFKGPRDYNPISSSICHLTNESDGHTTSLYGIGFGPFKITNKHLFRRNNGTLVVQSLHGVFKVKDTTTLQQHLVDGRDMIIIRMPKDFPPFPQKLKFREPQREERICLVTTNFQTKSMSSMVSDTSCTFPSGDGIFWKHWIQTKDGQCGSPLVSTRDGFIVGIHSASNFTNTNNYFTSVPKNFMELLTNQEAQQWVSGWRLNADSVLWGGHKVFMVKPEEPFQPVKEATQL [I42K],0.0407,0.0414,–,0.054,0.0367,0.0469,0.0314,0.0419,0.0396,0.0432,0.0591,0.0465,0.0473,0.0413,0.0315,0.0492,–,–,0.0578,0.046
MGESLFKGPRDYNPISSSICHLTNESDGHTTSLYGIGFGPHIITNKHLFRRNNGTLVVQSLHGVFKVKDTTTLQQHLVDGRDMIIIRMPKDFPPFPQKLKFREPQREERICLVTTNFQTKSMSSMVSDTSCTFPSGDGIFWKHWIQTKDGQCGSPLVSTRDGFIVGIHSASNFTNTNNYFTSVPKNFMELLTNQEAQQWVSGWRLNADSVLWGGHKVFMVKPEEPFQPVKEATQL [F41H],0.0835,0.0999,–,0.0337,0.0737,0.0357,0.0913,0.0547,–,0.0695,0.0617,0.066,0.0928,0.0569,–,0.0747,0.0655,0.0904,–,0.107
MGESLFKGPRDYNPISSSICHLTNESDGHTTSLYGIGFGPFIITNKHLFRRNNGTLVVQSLHGVFKVKDTTTLQQHLVDGRDMIIIRMPKDFPPFPQKLKFREPQREERICLVTTNFQTKSMSSMVSDTSVTFPSGDGIFWKHWIQTKDGQCGSPLVSTRDGFIVGIHSASNFTNTNNYFTSVPKNFMELLTNQEAQQWVSGWRLNADSVLWGGHKVFMVKPEEPFQPVKEATQL [C131V],0.0839,–,–,0.0691,–,–,–,0.0532,–,–,–,0.0577,0.102,–,–,–,–,–,–,–
